Reference: patent publication US20220348665A1 (ABL BIO, published 2022)
Where a chain is given by its changes, count along the chain named.

B1: hu11F11(ver.2)-F06(de2)(StoP) monovalent (bispecific antibody) (bispecific antibody, human IgG1, kappa)
heavy 1: EVQLVESGGGLVQPGGSLRLSCATSGFTFSDFYMEWVRQPPGKRLEWIAASRNKANDYTTEYSASVKGRFTVSRDDSKSSLYLQMNSLRAEDTAIYYCARDAHGKPFAYWGQGTTVTVSSASTKGPSVFPLAPSSKSTSGGTAALGCLVKDYFPEPVTVSWNSGALTSGVHTFPAVLQSSGLYSLSSVVTVPSSSLGTQTYICNVNHKPSNTKVDKKV[human IgG1 Fc with changes cut from this listing]GGGGSGGGGSGGGGSQSVLTQPPSASGTPGQRVTISCTGSSSNIGSNDVSWYQQLPGTAPKLLIYANVNRPSGVPDRFSGSKSGTSASLAISGLRSEDEADYYCGTWAGSLNAYVFGCGTKLTVLGGGGSGGGGSGGGGSGGGGSEVQLLESGGGLVQPGGSLRLSCAASGFTFSSYDMSWVRQAPGKCLEWVSAISYDNANTYYADSVKGRFTISRDNSKNTLYLQMNSLRAEDTAVYYCAKGVLTTLMNWFDYWGQGTLVTVSS
heavy 2: EVQLVESGGGLVQPGGSLRLSCATSGFTFSDFYMEWVRQPPGKRLEWIAASRNKANDYTTEYSASVKGRFTVSRDDSKSSLYLQMNSLRAEDTAIYYCARDAHGKPFAYWGQGTTVTVSS[human IgG1 constant region with changes cut from this listing]
light: DIVMTQSPSSLAVSLGERVTMS[about 80 residues cut from this listing][about 120 residues cut from this listing]
notes: also called hu11f11-F06(de2)(StoP); F06 mono (de2)(StoP)
B2: Hu11F11(ver.2)-1564 (bivalent bispecific antibody) (bispecific antibody, human IgG1, kappa)
heavy: EVQLVESGGGLVQPGGSLRLSCATSGFTFSDFYMEWVRQPPGKRLEWIAASRNKANDYTTEYSASVKGRFTVSRDDSKSSLYLQMNSLRAEDTAIYYCARDAHGKPFAYWGQGTTVTVSS[human IgG1 constant region cut from this listing]GGGGSGGGGSGGGGSQSVLTQPPSASGTPGQRVTISCTGSSSNIGSNDVSWYQQLPGTAPKLLIYANSNRPSGVSDRFSGSKSGTSASLAISGLRSEDEADYYCGAWDDSLNGYVFGCGTKLTVLGGGGSGGGGSGGGGSGGGGSEVQLLESGGGLVQPGGSLRLSCAASGFTFSSYDMSWVRQAPGKCLEWVSAISYDNGNTYYADSVKGRFTISRDNSKNTLYLQMNSLRAEDTAVYYCAKGVLTTLMNWFDYWGQGTLVTVSS
light: DIVMTQSPSSLAVSLGERVTMS[about 80 residues cut from this listing][about 120 residues cut from this listing]
notes: also called hu11F11x1564 WT
B3: hu11F11-1564(ver.3) (bispecific antibody)
heavy: B2 heavy with V72I, D76T
light: DIVMTQSPSSLAVSLGERVTMS[about 80 residues cut from this listing][about 120 residues cut from this listing]
B4: hu11F11-1564 (ver.3) mono (bispecific antibody)
heavy 1: EVQLVESGGGLVQPGGSLRLSCATSGFTFSDFYMEWVRQPPGKRLEWIAASRNKANDYTTEYSASVKGRFTISRDTSKSSLYLQMNSLRAEDTAIYYCARDAHGKPFAYWGQGTTVTVSSASTKGPSVFPLAPSSKSTSGGTAALGCLVKDYFPEPVTVSWNSGALTSGVHTFPAVLQSSGLYSLSSVVTVPSSSLGTQTYICNVNHKPSNTKVDKKV[human IgG1 Fc with changes cut from this listing]GGGGSGGGGSGGGGSQSVLTQPPSASGTPGQRVTISCTGSSSNIGSNDVSWYQQLPGTAPKLLIYANSNRPSGVSDRFSGSKSGTSASLAISGLRSEDEADYYCGAWDDSLNGYVFGCGTKLTVLGGGGSGGGGSGGGGSGGGGSEVQLLESGGGLVQPGGSLRLSCAASGFTFSSYDMSWVRQAPGKCLEWVSAISYDNGNTYYADSVKGRFTISRDNSKNTLYLQMNSLRAEDTAVYYCAKGVLTTLMNWFDYWGQGTLVTVSS
heavy 2: EVQLVESGGGLVQPGGSLRLSCATSGFTFSDFYMEWVRQPPGKRLEWIAASRNKANDYTTEYSASVKGRFTISRDTSKSSLYLQMNSLRAEDTAIYYCARDAHGKPFAYWGQGTTVTVSS[human IgG1 constant region with changes cut from this listing]
light: DIVMTQSPSSLAVSLGERVTMS[about 80 residues cut from this listing][about 120 residues cut from this listing]
notes: monovalent form, marked 'mono' on the sheet
B5: hu11F11(ver.2)-F06 monovalent (bispecific antibody, non-deamidated wild type) (bispecific antibody)
heavy 1: EVQLVESGGGLVQPGGSLRLSCATSGFTFSDFYMEWVRQPPGKRLEWIAASRNKANDYTTEYSASVKGRFTVSRDDSKSSLYLQMNSLRAEDTAIYYCARDAHGKPFAYWGQGTTVTVSSASTKGPSVFPLAPSSKSTSGGTAALGCLVKDYFPEPVTVSWNSGALTSGVHTFPAVLQSSGLYSLSSVVTVPSSSLGTQTYICNVNHKPSNTKVDKKV[human IgG1 Fc with changes cut from this listing]GGGGSGGGGSGGGGSQSVLTQPPSASGTPGQRVTISCTGSSSNIGSNDVSWYQQLPGTAPKLLIYANSNRPSGVSDRFSGSKSGTSASLAISGLRSEDEADYYCGTWAGSLNGYVFGCGTKLTVLGGGGSGGGGSGGGGSGGGGSEVQLLESGGGLVQPGGSLRLSCAASGFTFSSYDMSWVRQAPGKCLEWVSAISYDNGNTYYADSVKGRFTISRDNSKNTLYLQMNSLRAEDTAVYYCAKGVLTTLMNWFDYWGQGTLVTVSS
heavy 2: EVQLVESGGGLVQPGGSLRLSCATSGFTFSDFYMEWVRQPPGKRLEWIAASRNKANDYTTEYSASVKGRFTVSRDDSKSSLYLQMNSLRAEDTAIYYCARDAHGKPFAYWGQGTTVTVSS[human IgG1 constant region with changes cut from this listing]
light: DIVMTQSPSSLAVSLGERVTMS[about 80 residues cut from this listing][about 120 residues cut from this listing]
notes: also called hu11f11-F06; F06 WT
B6: Hu11F11(ver.2)-VH16 bivalent (bispecific antibody) (bispecific antibody)
heavy: EVQLVESGGGLVQPGGSLRLSCATSGFTFSDFYMEWVRQPPGKRLEWIAASRNKANDYTTEYSASVKGRFTVSRDDSKSSLYLQMNSLRAEDTAIYYCARDAHGKPFAYWGQGTTVTVSS[human IgG1 constant region cut from this listing]GGGGSGGGGSGGGGSQSVLTQPPSASGTPGQRVTISCTGSSSNIGSNDVSWYQQLPGTAPKLLIYANSNRPSGVSDRFSGSKSGTSASLAISGLRSEDEADYYCGAWDDSLNGYVFGCGTKLTVLGGGGSGGGGSGGGGSGGGGSEVQLLESGGGLVQPGGSLRLSCAASGFTFSSYDMSWVRQAPGKCLEWVSAISGSNGNTYYADSVKGRFTISRDNSKNTLYLQMNSLRAEDTAVYYCAKGVLTTLMNWFDYWGQGTLVTVSS
light: DIVMTQSPSSLAVSLGERVTMS[about 80 residues cut from this listing][about 120 residues cut from this listing]
notes: also called hu11F11-VH16; hu11F11x1564_VH16
B7: Hu11F11(ver.2)-VH5 bivalent (bispecific antibody) (bispecific antibody)
heavy: EVQLVESGGGLVQPGGSLRLSCATSGFTFSDFYMEWVRQPPGKRLEWIAASRNKANDYTTEYSASVKGRFTVSRDDSKSSLYLQMNSLRAEDTAIYYCARDAHGKPFAYWGQGTTVTVSS[human IgG1 constant region cut from this listing]GGGGSGGGGSGGGGSQSVLTQPPSASGTPGQRVTISCTGSSSNIGSNDVSWYQQLPGTAPKLLIYANSNRPSGVSDRFSGSKSGTSASLAISGLRSEDEADYYCGAWDDSLNGYVFGCGTKLTVLGGGGSGGGGSGGGGSGGGGSEVQLLESGGGLVQPGGSLRLSCAASGFTFSSYDMSWVRQAPGKCLEWVSAISGDNGSTYYADSVKGRFTISRDNSKNTLYLQMNSLRAEDTAVYYCAKGVLTTLMNWFDSWGQGTLVTVSS
light: DIVMTQSPSSLAVSLGERVTMS[about 80 residues cut from this listing][about 120 residues cut from this listing]
notes: also called hu11f11-VH5; hu11F11x1564_VH5

What follows are binders tested against T1, human IGF1R extracellular domain, recombinant, His tag at C-terminus (human, UniProt P08069 31-932) (assay: ELISA, human IGF1R ECD coated, against F06 wild type).
T1 construct: also called human IGF1R ECD; ECD of IGF1R

% WT [%] | Binder
195 | B1

These binders were tested against T1, human IGF1R extracellular domain, … (assay: ELISA on human IGF1R protein, against F06 WT).

% WT [%] | Binder
195 | B1

The binders below were run against alpha-synuclein aggregates (human alpha-synuclein, fibril) (human, UniProt P37840) (assay: ELISA on coated alpha-synuclein aggregates, antibody 5-fold dilutions from 400 nM, anti-human Fc-HRP; value is C of the 4-P fit table under the plot).

EC50 [nM] | Binder
4.27 | B2
0.874 | B3
0.559 | B4

The binders below were run against T1, human IGF1R extracellular domain, … (assay: ELISA on human IGF1R protein).

EC50 [nM] | Binder
0.112 | B5
0.143 | B6
0.0575 | B1
0.125 | B7

Each binder was assayed against T1, human IGF1R extracellular domain, … (assay: ELISA, human IGF1R ECD (Sino Biological) coated, anti-human Fc-HRP).

EC50 [nM] | Binder
0.0575 | B1

What follows are binders tested against T1, human IGF1R extracellular domain, … (assay: ELISA on ECD of IGF1R, bispecific form).

EC50 [nM] | Binder
0.236 | B6
0.366 | B7

Each binder was assayed against T2, human IGF1R, endogenous, on the surface of breast cancer cell lines (MCF-7, JIMT-1, BT474) (human, UniProt P08069 31-1367) (assay: FACS on MCF-7 cells (2ndary Ab only MFI 2.29)).
T2 construct: also called endogenous IGF1R on the cell surface; MCF-7 cell line

MFI | Binder
9.61 | B5
6.13 | B6
8.61 | B1
6.44 | B7

Each binder was assayed against T2, human IGF1R, endogenous, on the surface … (assay: FACS on MCF-7 cells, antibody 10 ug/mL (2nd Ab only 2.86, not treated 1.88)).

GeoMean, Internalization at 37° C. | Binder
5.83 | B6
6.1 | B7
